Measured values as given in PubChem BioAssay AID624173 (National Center for Advancing Translational Sciences (NCATS), 2012).
The whole screen tested about 410,000 compounds, of which about 490 (0.12%) were called active. Inconclusive means that the source gave no clear call. Such entries were picked first, then a sample of the others. Calls come from the whole dose curve; as a rule, active = well fitted inhibition curve with a large enough effect; inconclusive = small, poorly fitted or top-dose-only effect; inactive = flat fitted curve, though single readings scatter. Potencies of inconclusive entries are doubtful fits and often do not repeat.

Target: pyruvate kinase (Trypanosoma brucei) (UniProt Q57TT1)
Test: qHTS of Trypanosoma Brucei Inhibitors; note: nearly all actives have a fitted effect of over 50% in size
Conditions: TbPYK enzyme, Kinase-Glo Plus ATP luminescence, 45 min; series mostly up to 76.8 µM; activity, negative = inhibition: at the top concentration
Description: Members of the Trypanosomatidae family of parasitic protozoans cause a spectrum of diseases throughout the tropical and subtropical world. Sleeping sickness, caused by two subspecies of Trypanosoma brucei, is endemic to areas of sub-Saharan Africa, while Chagas' disease, a manifestation of Trypanosoma cruzi infection, is prevalent throughout Central and South America. In addition, many species of Leishmania are responsible for a range of cutaneous and visceral diseases, causing ulcers, destructive lesions and kalaazar, a lethal infection of the viscera. These diseases cause severe public health and economic burdens on populations that are often already caught in a tragic cycle of poverty, poor nutrition and disease. Collectively, parasites of the trypanosomatid family infect 30 million people worldwide (~500 million live in endemic areas), and account for ~130K deaths annually. Existing treatments have developed little in the past 50 years, and suffer from toxicity, poor efficacy and resistance; the goal of this project is to develop lead drugs that will be suitable for entry into pre-clinical trials.
Glycolysis in axenically cultured T. cruzi, representing the intracellular pathogenic stage, is also essential for these parasites. {Engel, 1987} This project aims to discover and optimize selective inhibitors of the glycolytic enzyme pyruvate kinase (PYK) from Trypanosoma brucei, the parasite that causes sleeping sickness. […] Trypanosomatid PYKs show significant differences from their human counterparts including only 47-50% sequence identity and different allosteric and activation properties.{Callens, 1992} To this end, a qHTS was done against the MLSMR to discover inhibitors.
NIH Molecular Libraries Probe Production Network [MLPCN]
NIH Chemical Genomics Center [NCGC]
PI Name: Malcolm Walkinshaw, University of Edinburgh
2 uL of TbPYK/substrate buffer (columns 1-3, 5-48) are dispensed into Greiner white solid bottom 1536-well assay plates; column 4 receives only TEA buffer as 0x TbPYK controls. Compounds are then transferred via Kalypsys pin tool equipped with 1536-pin array (10 nL slotted pins, V&P Scientific, San Diego, CA). Following addition of compound, 2 uL of ADP (130 uM final concentration, all columns) is added to initiate the reaction. The plates are then incubated at room temperature for 45 minutes. Kinase-Glo Plus reagent is added (3 uL) and plates incubated for 10 minutes, before being transferred to a ViewLux high-throughput CCD imager (PerkinElmer) wherein single end-point measurements of luminescence are acquired using a clear filter. All reagents are diluted in an assay buffer consisting of 50 mM TEA (pH 7.2), 100 mM KCl, 10 mM MgCl2, 0.05% BSA and 0.01% Tween-20.
All screening operations will be performed on a fully integrated robotic system (Kalypsys, San Diego, CA) containing one RX-130 and two RX-90 anthropomorphic robotic arms (Staeubli, Duncan, SC). Library plates will be screened starting from the lowest and proceeding to the highest concentration. Vehicle-only plates, with DMSO being pin-transferred to columns 5-48, will be inserted uniformly at the beginning and the end of each library in order to monitor and record any shifts in the background, which can be affected by reagent dispensers or loss in enzyme activity over time. Screening data will be corrected, normalized, and concentration-effect relationships will be derived by using publicly-available curve fitting algorithms developed in-house (http://ncgc.nih.gov/pub/openhts).
% is set by controls: 0 for no effect and ±100 for the full control effect; potency is the fitted concentration of half-maximal effect; tags give direction and shape of the fitted curve.

Row | SMILES | activity, negative = inhibition | Potency
1 | Cc1cc(C)cc(N2C(=O)NC(=O)/C(=C\C=C\c3ccco3)C2=O)c1 | inactive: -22.4% | 
2 | Cc1cccc(OCC(=O)NCCN2CCOCC2)c1 | inactive: -17% | 
3 | Cc1ccc(-n2nc(C)c3c(C(F)(F)F)cc(-c4cccnc4)nc32)cc1C | inactive: 3.07% | 
4 | COc1ccc(NC2CS(=O)(=O)CC2OC(=O)c2ccc(F)cc2)cc1 (stereo not drawn) |  | inconclusive: 50.1 µM [inhibitor, single point]
5 | c1ccc(-c2cn3c(n2)-c2ccccc2C3)cc1 |  | inconclusive: 31.6 µM [inhibitor, partial curve]
6 | Cc1ccc(-n2c(-c3ccc(Br)cc3)n[nH]c2=S)c(C)c1 |  | inconclusive: 10 µM [inhibitor, partial curve]
7 | O=C(NCCc1c[nH]c2ccccc12)/C(=C/c1ccco1)NC(=O)c1ccco1 | inactive: 1.88% | 
8 | CCCCn1c(O)c(C(CC)=NCCN2CCOCC2)c(=O)[nH]c1=O |  | inconclusive: 39.8 µM [inhibitor, single point]
9 | CCN1CCN(C(=S)c2ccc(Br)cc2)CC1 |  | inconclusive: 14.1 µM [inhibitor, partial curve, poor fit]
10 | O=S(=O)(/N=S1\CC=CCN1S(=O)(=O)c1ccccc1)c1ccccc1 (stereo not drawn) |  | inconclusive: 2.82 µM [inhibitor, partial curve, poor fit]
11 | Cn1c(SCC(=O)c2ccccc2)nnc1-c1cnccn1 |  | inconclusive: 50.1 µM [inhibitor, single point]
12 | Cc1ccc(Cn2c(CNS(=O)(=O)c3cccc([N+](=O)[O-])c3)nc3cccnc32)cc1 | inactive: 6.59% | 
13 | O=C(COC(=O)c1cccc(S(=O)(=O)N2CCOCC2)c1)Nc1nc(-c2ccccc2Cl)cs1 | inactive: -3.7% | 
14 | COc1cc(/C=C2\SC(c3ccccc3)=NC2=O)cc(Cl)c1O |  | inconclusive: 2.82 µM [inhibitor, full curve]
15 | Cc1cccc(N2CCN(C(=O)C3CCCN(S(=O)(=O)c4ccc5c(c4)oc(=O)n5C)C3)CC2)c1C (stereo not drawn) | inactive: -1.23% | 
16 | c1csc(Cc2nn3c(-c4n[nH]c5c4CCC5)nnc3s2)c1 |  | inconclusive: 20 µM [inhibitor, partial curve, poor fit]
17 | O=C([O-])c1ccccc1-[n+]1c(-c2ccccc2)cc(-c2ccccc2)cc1-c1ccccc1 | inactive: 1.78% | 
18 | CN1CCc2c(sc3c2c(=O)n(-c2cccc(Cl)c2)c2nncn32)C1 |  | inconclusive: 12.6 µM [inhibitor, partial curve, poor fit]
19 | O=C(O)CCc1nc(-c2ccccc2)c(-c2ccccc2)o1 | inactive: -2.98% | 
20 | COc1ccc(C(=O)O/N=C(\C)c2ccccc2)cc1 |  | active: 12.6 µM
21 | O=C(/C=C\c1ccc(-c2ccccc2)o1)c1ccccc1 | inactive: -16.3% | 
22 | O=[N+]([O-])c1cc2oc3c(c2c(C=NCc2ccncc2)c1O)CCCC3 |  | inconclusive: 31.6 µM [inhibitor, partial curve]

Row | SMILES | activity, negative = inhibition | Potency
23 | CCn1c(=O)c2cc(C(=O)N3CCN(c4cccc(OC)c4)CC3)sc2c2ccccc21 | inactive: -0.74% | 
24 | COc1cc(/C=C(\C#N)c2nc(-c3cc4ccccc4oc3=O)cs2)ccc1O | inactive: -15.1% | 
25 | COc1cccc(/C=C2\CCc3ccccc3C2=O)c1 |  | inconclusive: 39.8 µM [inhibitor, single point]
26 | N/C(=N\OC(=O)c1ccco1)c1ccccn1 |  | inconclusive: 28.2 µM [inhibitor, single point]
27 | CCC(C)NCCOCCOc1ccc(C)cc1Br (stereo not drawn) | inactive: 1.82% | 
28 | CC[C@]1(O)CC2CN(CCc3c([nH]c4ccccc34)[C@@](C(=O)OC)(c3cc4c(cc3OC)N(C)[C@H]3[C@@](O)(C(=O)OC)[C@H](OC(C)=O)[C@]5(CC)C=CCN6CC[C@]43[C@@H]65)C2)C1 (stereo partly drawn) |  | inconclusive: 31.6 µM [inhibitor, partial curve, poor fit]
29 | Cc1ccc(C)n1-n1cnc2sc(-c3ccccc3)cc2c1=O | inactive: 0.251% | 
30 | O=c1[nH]c(SCc2n[nH]c(=S)n2-c2ccccc2)nc2sc3c(c12)CCC3 |  | inconclusive: 12.6 µM [inhibitor, partial curve, poor fit]
31 | CCCC(=O)Oc1ccccc1C1SCc2cc(C)c(C)cc2CS1 | inactive: -21.6% | 
32 | Cc1ccccc1Cc1n[nH]c(=S)n1N |  | inconclusive: 28.2 µM [inhibitor, partial curve]
33 | COc1ccc(N2N=NN(C(C)C)C2=C(Cl)c2nnnn2-c2ccc(OC)cc2)cc1 |  | inconclusive: 15.8 µM [inhibitor, partial curve]
34 | CCOC(=O)c1scc(-c2ccccc2)c1S(=O)(=O)Nc1ccccc1F |  | inconclusive: 35.5 µM [inhibitor, single point]
35 | COCCn1c(-c2ccccc2F)n[nH]c1=S |  | inconclusive: 20 µM [inhibitor, partial curve, poor fit]
36 | COc1ccc2[nH]c(C(=O)NCc3ccccc3)cc2c1 | inactive: -16.1% | 
37 | CN(C)c1ccc(/C=C/c2ccc3ccccc3[n+]2C)cc1 |  | inconclusive: 17.8 µM [inhibitor, partial curve]
38 | C/C1=C2N=C(/C=C3N=C(/C(C)=C4\[N-][C@@H]([C@H](CC(N)=O)[C@]4(C)CCC(=O)NC[C@@H](C)OP(=O)([O-])O[C@@H]4[C@@H](O)[C@H](n5cnc6cc(C)c(C)cc65)O[C@@H]4CO)[C@@]4(C)N=C1[C@H](CCC(N)=O)[C@@]4(C)CC(N)=O)[C@H](CCC(N)=O)C\3(C)C)[C@@H](CCC(N)=O)[C@@]/2(C)CC(N)=O.[CH3-].[Co+3] |  | inconclusive: 28.2 µM [inhibitor, single point]
39 | Cc1ccc(-c2n[nH]c(=S)c3ccccc23)cc1S(=O)(=O)NCC1CCCO1 (stereo not drawn) |  | inconclusive: 25.1 µM [inhibitor, partial curve]
40 | C=CCn1c(CNS(=O)(=O)c2ccc(Br)cc2)n[nH]c1=S |  | inconclusive: 17.8 µM [inhibitor, partial curve]
41 | S=c1[nH]nc(-c2c[nH]c3ccccc23)o1 |  | inconclusive: 35.5 µM [inhibitor, partial curve]
42 | Fc1ccc(-n2nnnc2-c2ccccc2Cl)cc1 | inactive: -3.88% | 
43 | COc1ccc(OC)c(C(=O)CSc2nnc(Cc3cccs3)n2CCc2ccccc2)c1 |  | inconclusive: 28.2 µM [inhibitor, partial curve, poor fit]
